In paper PMC7819943, “Rice protein-binding microarrays: a tool to detect cis-acting elements near promoter regions in rice” one finds binding signal data, which are given here for 42 sequences.

The other results are listed elsewhere or left out.

The assay deals with T1, OsWOX13 (Oryza sativa, UniProt Q5QMM3 1-267).
T1 sequence: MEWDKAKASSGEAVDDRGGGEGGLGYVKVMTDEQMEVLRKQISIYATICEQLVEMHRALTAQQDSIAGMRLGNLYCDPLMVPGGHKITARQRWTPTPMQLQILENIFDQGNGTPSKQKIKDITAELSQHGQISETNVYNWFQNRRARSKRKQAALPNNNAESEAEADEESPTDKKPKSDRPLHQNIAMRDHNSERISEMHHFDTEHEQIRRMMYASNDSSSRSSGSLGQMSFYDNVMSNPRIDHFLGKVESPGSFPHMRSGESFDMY
Description: protein-binding microarray (RPBM); PBS, 2% BSA, 51.3 ng/ul salmon testes DNA, 50 uM zinc acetate, 200 nM TF, 25 C, 1 h; high values mean tight binding. The conditions noted are these: protein: recombinant; tags: N-terminal polyhistidine and DsRed monomer fusion (pET32a); label: CyDye5-dUTP incorporated in the synthesized complementary strand; 3' TTTTT single-stranded linker to array surface; dsDNA, one strand shown. An outline of the steps:
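Per-feature fluorescence intensity (arbitrary units), read on an Axon 4000B scanner, is the binding signal. Transcription factors carrying an N-terminal polyhistidine tag and DsRed fusion were expressed in E. coli BL21-CodonPlus and purified on Ni–NTA. A custom Agilent array, made double-stranded by primer extension with Cy5-dUTP and blocked with 2% BSA, was incubated with 200 nM protein in PBS, 2% BSA, salmon testes DNA and 50 µM zinc acetate at 25 °C for 1 h and then washed.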
Take “TTTGCTCTCATCACACATTCAATCACTCCATAAATTTTGACGGAGTCACCTAGTGCAG”: the binding signal was 10700 fluorescence intensity (a.u.).
With “CCCAATGTAATGTGTGAATATATTGACAATAGGCTTCTATCGGAGTCACCTAGTGCAG”, the binding signal is 4220 fluorescence intensity (a.u.).
The figure for “AATCCAATCCTGGCAAATTTTAGCTCCCATTAACGCTCAGCGGAGTCACCTAGTGCAG” is 3740 fluorescence intensity (a.u.).
In the case of “AAACCAATCATCACCTCTTCTTCTTGGGGTGTTCTTGACTCGGAGTCACCTAGTGCAG”, the binding signal is 21300 fluorescence intensity (a.u.).
With “GTTCAAATTATTTGACTTGTGTTAACCACAAATGTTACGCCGGAGTCACCTAGTGCAG”, the binding signal is 16000 fluorescence intensity (a.u.).
Turning to “ACTATAATTAATGGATCCAGTAATAATATTTCTATAGTGTCGGAGTCACCTAGTGCAG”, the binding signal was 19000 fluorescence intensity (a.u.).
Consider “TCCAGAATTGTGCAATCAATGAAATCCGCCGACTAAATGACGGAGTCACCTAGTGCAG”, for which the binding signal was 6760 fluorescence intensity (a.u.).
The figure for “TACCAAATTTTGTTAATGCCAAATTTTGGCATTACTAATTCGGAGTCACCTAGTGCAG” is 5730 fluorescence intensity (a.u.); for “GTTGTCAAATGAGTCAATTAGATATTTCCAACCCACACTACGGAGTCACCTAGTGCAG” it is 5950 fluorescence intensity (a.u.).
For “CCATTTCAAATTACTTATCATTCTAACAGCTTTTGTCCCACGGAGTCACCTAGTGCAG” the value was 4570 fluorescence intensity (a.u.); for “CTTTGTATTTTAATAATTGAAAACTGATGTAAGTTATGAGCGGAGTCACCTAGTGCAG”, 8880 fluorescence intensity (a.u.); for “ACTTCCCATGTAAATTATGTCAATTCAGAAACGACAATCTCGGAGTCACCTAGTGCAG”, 5710 fluorescence intensity (a.u.).
For “ACTTTCTCTTCTCAACCAATCACATACTTCCTCTAATCATCGGAGTCACCTAGTGCAG” the value was 3450 fluorescence intensity (a.u.); for “GAAATTATTGCTGAAATTTTGTCCTTCATAGTGTGCTGTTCGGAGTCACCTAGTGCAG”, 12200 fluorescence intensity (a.u.).
For the sequence “CTGACGTCGCCTTTGATTGTGTAGATTAGCTTCTTTGGATCGGAGTCACCTAGTGCAG”, the binding signal is 11500 fluorescence intensity (a.u.).
On to “ATAGGGTGTAATTTATTTTCGGATTTGCTACATCTCTGTCCGGAGTCACCTAGTGCAG”, for which the binding signal was 4320 fluorescence intensity (a.u.).
Consider “CGTGTCTCCCCAATCCCAATCACTAGCCTCCTCCGTCGACCGGAGTCACCTAGTGCAG”, for which the binding signal was 3180 fluorescence intensity (a.u.).
As for “GTCACGACGCCCTGATTGGCGTGAGGACATAGTTACATTTCGGAGTCACCTAGTGCAG”, the binding signal is 9000 fluorescence intensity (a.u.).
Take “AACCAAAATTGATGCTTGGGGAGCATCCATTGGAGAGGCCCGGAGTCACCTAGTGCAG”: the binding signal is 12200 fluorescence intensity (a.u.).
For “GCTTTTAAATCAAAATCATCAATTTCTGCTTTATTAACCCCGGAGTCACCTAGTGCAG”, the binding signal was 11100 fluorescence intensity (a.u.).
As for “CCATGATTTGACAATGTGATGCTACAGTAAACATTTGCTACGGAGTCACCTAGTGCAG”, the binding signal is 42800 fluorescence intensity (a.u.).
On to “CTGTATATTGATTGATTGGTTATTCGCAAGAAACATGACTCGGAGTCACCTAGTGCAG”, for which the binding signal is 65100 fluorescence intensity (a.u.).
On to “TCTACTATATCAATTTAGTTTCATTAAATATAACGCTGAACGGAGTCACCTAGTGCAG”, for which the binding signal is 4370 fluorescence intensity (a.u.).
The figure for “CAGTTTTGATCATTGAATTAATTGGCCAGGTCTATTCCCCCGGAGTCACCTAGTGCAG” is 40800 fluorescence intensity (a.u.).
In the case of “CTAACTTAGAGATAGATTAGCATGTATGACACATCAATTTCGGAGTCACCTAGTGCAG”, the binding signal was 5120 fluorescence intensity (a.u.).
As for “TCCAAAATCAATCAATTAAAACCCATAGTTATTGTTGACTCGGAGTCACCTAGTGCAG”, the binding signal is 53500 fluorescence intensity (a.u.).
For the sequence “ACTTACTATAACATTGATTGTTATGTCACTTGTATGTGGACGGAGTCACCTAGTGCAG”, the binding signal is 23800 fluorescence intensity (a.u.).
Consider “CTATAATTGAACGAGCATACTGATGGAGAGATCAAGAATCCGGAGTCACCTAGTGCAG”, for which the binding signal is 22500 fluorescence intensity (a.u.).
As for “GGAGGTATACGTAATTAATTATCTTCCTCCGACAGGGCGACGGAGTCACCTAGTGCAG”, the binding signal is 16900 fluorescence intensity (a.u.).
Turning to “GTAATTGAAGATCGGAGTGTTGTATTTGAGCTGGCAAGTTCGGAGTCACCTAGTGCAG”, the binding signal was 9630 fluorescence intensity (a.u.).
With “GCTTCTCTTCATTCATTCTTTGACTTCTTCTCCTAATTTACGGAGTCACCTAGTGCAG”, the binding signal is 4220 fluorescence intensity (a.u.).
For “TCAAATTAATTGCAGCCATCGATCGATCAATCCATGGATGCGGAGTCACCTAGTGCAG”, the binding signal was 50100 fluorescence intensity (a.u.).
Regarding “TGTTATAACGGATTTCTAATTATATGTCTTAAGTTGTTAGCGGAGTCACCTAGTGCAG”, the binding signal is 6010 fluorescence intensity (a.u.).
Consider “ATATATATTATGATTAGATGACATGGTCAAAAGATATATTCGGAGTCACCTAGTGCAG”, for which the binding signal was 8510 fluorescence intensity (a.u.).
As to “GCATGACCAAATTGCAAAATGTACCAGGCCCGAGATCGATCGGAGTCACCTAGTGCAG”, the binding signal was 3680 fluorescence intensity (a.u.).
As for “ATTAATTATTAAATAGATTTAAATAAGATATGATGATTAACGGAGTCACCTAGTGCAG”, the binding signal is 38100 fluorescence intensity (a.u.).
As for “ATTCTAATTAAAATTCTGATGAAGTGGTCTGGGTCTAGGTCGGAGTCACCTAGTGCAG”, the binding signal was 18800 fluorescence intensity (a.u.).
On to “TTAATATATATTAATATATATTAGTGATATGCGAAACATACGGAGTCACCTAGTGCAG”, for which the binding signal was 3610 fluorescence intensity (a.u.).
On to “TTAATTTATTCCATATAATCTCTGTTCTTGCTTAATGAAGCGGAGTCACCTAGTGCAG”, for which the binding signal was 5130 fluorescence intensity (a.u.).
For “GCAAATTAACTTAATTAATAAGTTGAGCAGCCTGTAGGCCCGGAGTCACCTAGTGCAG” the value was 58200 fluorescence intensity (a.u.); for “TATAAATAACTTTGAAGATTGAATCGACATATCATACGATCGGAGTCACCTAGTGCAG”, 21200 fluorescence intensity (a.u.).
The figure for “ATAATAAAGCATGATTAATATTTTATGCGTGACTTGTCTTCGGAGTCACCTAGTGCAG” is 6400 fluorescence intensity (a.u.).
